Data on 5 compounds can be found in publication PMC11363325, “A Novel Prodrug Strategy Based on Reversibly Degradable Guanidine Imides for High Oral Bioavailability and Prolonged Pharmacokinetics of Broad-Spectrum Anti-influenza Agents” (ACS Central Science, 2024).

Read-outs that look alike come from different tables or passages of the source.

Data set [1] in a line: in vitro.
Data set [2] has as its system A/Puerto Rico/8/1934 (PR8; H1N1). The data set is described as follows: microbe, parasite or virus in culture. The settings on record: Influenza A virus, MDCK.
Data set [3] in a line: physchem. It is filed as physicochemical. The note with it: pH 7.4.
Data set [4] is described as follows: Stability of OSC-GCDIs and GOC release in BALB/c serum. The format is in vitro ADME. The note with it: mouse, 200 μM prodrug, 37 °C. The procedure:
(§1) Stability of OSC-GCDIs in serum
Stability of the GCDI prodrugs were examined by incubating prodrugs in human and BALB/c serum at 37 °C and 200 μM final concentration. Briefly, each prodrug was dissolved in DMSO to be 20 mM concentration, then 10 μL of each prodrug solution was mixed with 990 μL of serum. At different time intervals, 100 μL of the samples were taken and mixed with 100 μL of MeCN. Samples were centrifuged at 14,000 rpm for 10 min at 4 °C and the supernatant was immediately frozen (−80 °C). After thawing and shaking, the samples were filtered using a polytetrafluoroethylene (PTFE) filter (0.20 μm pore size) […]
Release profiles of GOC from the OSC -GCDI prodrugs conjugated to human serum albumin OSC-GCDIs were dissolved in Dulbecco ’s Phosphate-Buffered Saline (DPBS) containing HSA (20 mg/mL) to be concentration of 1 mM, then the mixture was shaken for 10 min at 37 °C. Unbound OSC-GCDIs were removed by washing twice with DPBS using Vivaspin 500 ultrafiltration units (10 kDa cutoff).
Following centrifugation, the samples were redissolved in 1 mL DPBS. Before incubation at 37 °C, 50 µL sample was taken and mixed with 50 µL of 1 M KOH in m ethanol solution to completely hydrolyze the conjugates and determine the initial drug concentration bound to HSA. Subsequently, the samples were incubated at 37 °C and after 1, 2, 4, 24, and 72 h incubation, 50 µL of the samples were taken and mixed with 50 µL MeCN. Then, the concentration of the released GOC was quantified by HPLC. […]

Data set [5] is described as follows: Stability of OSC-GCDIs in phosphate buffers. The settings on record: sodium phosphate buffer. The format is physicochemical.
Data set [6] can be described thus: Stability of OSC-GCDIs in human serum. The format is in vitro ADME. The note with it: 200 μM prodrug, 37 °C. How it is done: as §1
Stability of the GCDI prodrugs were examined by incubating prodrugs in human and BALB/c serum at 37 °C and 200 μM final concentration. Briefly, each prodrug was dissolved in DMSO to be 20 mM concentration, then 10 μL of each prodrug solution was mixed with 990 μL of serum. At different time intervals, 100 μL of the samples were taken and mixed with 100 μL of MeCN. Samples were centrifuged at 14,000 rpm for 10 min at 4 °C and the supernatant was immediately frozen (−80 °C). After thawing

Another data set has as its system B/Lee/1940 (Lee). The data set is described as follows: microbe, parasite or virus in culture. The note with it: Influenza B virus, MDCK.
A short description of data set [7]: physchem. It is filed as physicochemical.
Data set [8] is described as follows: in vitro. It is filed as in vitro ADME. The note with it: PAMPA. The procedure: To assess this hypothesis, we conducted the parallel artificial membrane permeability assay (PAMPA) for simulating passive transcellular permeation.[41]
Supplemental Experimental Procedures
In vitro Parallel Artificial Membrane Permeability Assay (PAMPA) […]
evaluated using Parallel Artificial Membrane Permeability Assay Kit (PAMPA-096). Each prodrug and the supplied permeability controls were dissolved in DMSO at the concentration of 10 mM. Then 25 μL of each prodrug solution was mixed with 475 μL of 50 mM sodium phosphate buffer (pH 6.5) to be used as the test solution. GOC/HPMCP and OSC-GCDI/HPCMP particles are dissolved in 50 mM sodium phosphate buffer (5% DMSO, pH 6.5) to achieve a final concentration of 200 µM. In the acceptor plate, 300 μL of 50 mM sodium phosphate buffer (pH 7.4) was added. Subsequently, before adding 200 μL of each test solution to the donor plate, 5 μL of 4% lecithin in dodecane was directly applied to the well membrane of the donor plate. Donor plate was carefully placed into acceptor plate and incubate at r.t. for 16 – 24 h. Donor plate was removed and each solution was collected and filtered by a PVDF filter (0.20 μm pore size). The total prodrug concentration in each plate was determined by HPLC analysis.
In the case of OSC-GCDI(P), partial degradation occurred due to the instability of OSC-GCDI(P) in the buffer. Therefore, the collected solution was further incubated in a 1 M KOH solution for complete hydrolysis. Then, the concentration of GOC was quantified instead.

In data set [9] the test system is A/Hong Kong/8/1968 (HK; H3N2). The data set can be described thus: microbe, parasite or virus in culture. The settings on record: Influenza A virus, H3N2, MDCK.
The mark [10] stands for this setting: pH 2, phosphate buffer pH 2.0, 37 °C.
[11] abbreviates: pH 6.5, phosphate buffer pH 6.5, 37 °C.
Setting [12] is: pH 7.4, phosphate buffer pH 7.4, 37 °C.
[13] abbreviates: pH 8, phosphate buffer pH 8.0, 37 °C.

A word on the EC50: it is the concentration needed to bring the measured effect to its halfway point. As usually defined, the logD is lipophilicity at a set pH, counting ionised and neutral species. A lower logD goes with a more hydrophilic compound. In general, half-life refers to the time in which the quantity being followed falls by half. In general, logP refers to a log measure of how a compound divides between an organic and an aqueous phase. High values mean higher lipophilicity, low ones lower lipophilicity. As usually defined, the Papp is a coefficient for how fast a substance crosses the barrier. Compound `CCC(CC)O[C@@H]1C=C(C(=O)O)C[C@H](N=C(N2C(=O)C3CCC(C)CC3C2=O)N2C(=O)C3CCC(C)CC3C2=O)[C@H]1NC(C)=O` (stereo partly shown) [OSC-GCDI(CM)] had a CC50 at 3 days in the data set “in vitro [1]” (dog) greater than 100 µM. Also, the results for the EC50 (in [2]; with B/Lee/1940 (Lee)) were 0.03 ± 0.01 µM and 8.36 ± 1 µM, respectively. The same compound displayed a logD in “physchem [3]” of 0.98. For the same compound, the figures for the half-life at 200 μM in data set [4] and in data set [6] were 13.3 min and 31.2 min, respectively. The half-life at 100 μM in [5] (setting [10]) is greater than 1440 min; in data set [5] (setting [11]) it was 693 min; in data set [5] (setting [12]), 99 min; in data set [5] (setting [13]), 3.92 min. Moreover, the logP in the data set “physchem [7]” is 1.62. In “in vitro [8]”, this compound yielded a Papp at 500 μM of 3.07 ×10⁻⁶ cm/s.
In “physchem [3]”, `CCC(CC)O[C@@H]1C=C(C(=O)O)C[C@H](N=C(N2C(=O)[C@H]3CC=CC[C@H]3C2=O)N2C(=O)[C@H]3CC=CC[C@H]3C2=O)[C@H]1NC(C)=O` [OSC-GCDI(Ce)] returned a logD of 0.5. The half-life at 200 μM in data set [4] was found to be 35.7 min; in data set [6] it was 53.3 min. The half-life at 100 μM in data set [5] (setting [10]) is greater than 1440 min; in data set [5] (setting [11]) it was 1160 min; in data set [5] (setting [12]), 105 min; in [5] (setting [13]), 54.2 min. This compound also gave an EC50 in the data set on B/Lee/1940 (Lee) of 12 ± 4.85 µM. Besides, the logP in the data set “physchem [7]” came out at 1.1. The Papp at 500 μM in the data set “in vitro [8]” amounted to 1.45 ×10⁻⁶ cm/s.
Regarding `CCC(CC)O[C@@H]1C=C(C(=O)O)C[C@H](N=C(N2C(=O)CC(C)C2=O)N2C(=O)CC(C)C2=O)[C@H]1NC(C)=O` (stereo partly shown) [OSC-GCDI(M)], the CC50 at 3 days in “in vitro [1]” (dog) is greater than 100 µM. In data set [2], a half-maximal response (EC50) required 0.04 ± 0.01 µM. Moreover, the logD in “physchem [3]” is -0.51. The half-life at 200 μM in data set [4] was 13.5 min; in data set [6] it was 18.4 min. The half-life at 100 μM was greater than 1440 min in data set [5] (setting [10]), 866 min in [5] (setting [11]), 108 min in data set [5] (setting [12]) and 39.5 min in [5] (setting [13]). This compound had a logP in “physchem [7]” of 0.43. Further, the Papp at 500 μM in “in vitro [8]” turned out to be 0.16 ×10⁻⁶ cm/s.
Compound `CCC(CC)O[C@@H]1C=C(C(=O)O)C[C@H](N=C(N2C(=O)CCC2=O)N2C(=O)CCC2=O)[C@H]1NC(C)=O` [OSC-GCDI(S)] registered a CC50 at 3 days in the data set “in vitro [1]” (dog) greater than 100 µM. The EC50 was 0.03 ± 0.01 µM in [9], 0.06 ± 0.01 µM in data set [2] and 11.1 ± 1.2 µM in the data set on B/Lee/1940 (Lee). In “physchem [3]”, this compound had a logD of -1.34. Further, the half-life at 200 μM in data set [4] amounted to 17.5 min; in [6] it was 16.7 min. The half-life at 100 μM in [5] (setting [10]) is greater than 1440 min; in data set [5] (setting [11]) it was 770 min; in data set [5] (setting [12]), 102 min; in data set [5] (setting [13]) it was 42 min. Moreover, the “increase of lipophilicity of GOC via the GCDI modification (based on P)” value in the data set “physchem [7]” was 8.8 fold. The logP in the data set “physchem [7]” is -0.38.
Consider `NC(=O)c1ncn([C@@H]2O[C@H](CO)[C@@H](O)[C@H]2O)n1` [RBV, Ribavirin, reference compound], for which the CC50 at 3 days in “in vitro [1]” was greater than 100 µM. Also, the EC50 was 21.8 ± 1.1 µM in [9] and 13.4 ± 0.95 µM in the data set with B/Lee/1940 (Lee).
